Assay results taken from PubChem BioAssay AID2675 (National Center for Advancing Translational Sciences (NCATS), 2010).
The campaign covered roughly 280,000 compounds. About 100 (0.036%) were called active. This list was built around the results that the source calls inconclusive (neither active nor inactive); the mix of calls is not that of the screen. Calls come from the whole dose curve; as a rule, active = well fitted inhibition curve with a large enough effect in the signal ratio, with a control signal flat (not every such curve was filed as active); inconclusive = small, poorly fitted or top-dose-only effect, or effect the other way, or a change in a side signal; inactive = no such curve, though single readings can be large or run the other way; the % refers to the signal ratio. Potencies of inconclusive entries are doubtful fits and often do not repeat. A note “side channel” means that the fit belongs to a control or component signal, not to the main read-out.

What follows are compounds tested against Muscleblind-like protein 1 (Homo sapiens) (UniProt Q9NR56) (assay: qHTS Assay for Inhibitors of MBNL1-poly(CUG) RNA binding). Conditions: TR-FRET MBNL1-His/biotin-(CUG)12 binding, 665/545 ratio; activity change, negative = inhibition: at 57.5 µM (top of the series).
Sequence of UniProt Q9NR56 (Q9NR56 whole entry, looked up): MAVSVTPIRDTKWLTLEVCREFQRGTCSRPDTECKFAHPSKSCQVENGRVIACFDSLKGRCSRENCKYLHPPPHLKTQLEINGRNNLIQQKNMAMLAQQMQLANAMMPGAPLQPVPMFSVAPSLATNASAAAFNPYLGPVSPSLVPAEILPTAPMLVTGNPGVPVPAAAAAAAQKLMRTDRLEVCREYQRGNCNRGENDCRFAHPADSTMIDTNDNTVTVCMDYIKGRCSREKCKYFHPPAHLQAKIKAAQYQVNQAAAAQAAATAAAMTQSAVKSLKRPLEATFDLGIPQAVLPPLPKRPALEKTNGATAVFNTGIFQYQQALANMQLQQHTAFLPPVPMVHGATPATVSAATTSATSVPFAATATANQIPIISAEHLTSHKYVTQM
In short: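 MBNL1-His + Biotin-(CUG)12, cpd titration 92 nM–58 uM; Tb anti-His Ab 0.055 ng/ul, SA-XL665 5 nM (final); 60 min RT; ratiometric 665/545 nm, Ex 340 nm; normalized to buffer and full-complex controls.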
% is set by controls: 0 for no effect and ±100 for the full control effect; potency is the fitted concentration of half-maximal effect; tags give direction and shape of the fitted curve or compound fluorescence and quenching.

| Compound | Potency | activity change, negative = inhibition |
| --- | --- | --- |
| OCCN1CCN(c2cc(C(F)(F)F)nc3c(F)cccc23)CC1 | inconclusive: 7.08 µM [quencher, side channel, partial curve] | – |
| COc1ccc(CC(NC(C)=O)C(=O)NC2CCN(C(=O)c3ccc([N+](=O)[O-])cc3)CC2)cc1OC (configuration not stated) | inconclusive: 15.8 µM [quencher, side channel, partial curve] | – |
| O=C(N/N=C/c1cccn1-c1cccc(C(=O)O)c1)Nc1ccccc1 | inconclusive: 44.7 µM [quencher, side channel, partial curve, poor fit] | – |
| CSc1nnc(-c2ccc(S(=O)(=O)N3CCOCC3)cc2)n1C | inconclusive: 35.5 µM [fluorescent, side channel, single point] | – |
| CCOC(=O)C1(CC2CCCCO2)CCN(Cc2cc3ccccc3[nH]2)CC1 (configuration not stated) | inconclusive: 39.8 µM [quencher, side channel, single point] | – |
| Cc1onc(-c2ccccc2)c1C(=O)Nc1sc2c(c1C#N)CCC(C)C2 (configuration not stated) | – | inactive: 10% |
| Cc1c(C(=O)c2ccc(N(C)C)cc2)c2ccccn2c1CCC#N | inconclusive: 22.4 µM [quencher, side channel, single point] | – |
| O=C(/C=C/c1cccc([N+](=O)[O-])c1)Nc1cc(C(=O)O)cc(C(=O)O)c1 | inconclusive: 7.94 µM [quencher, side channel, partial curve] | – |
| CN1C(C(=O)Nc2ccc(F)cc2F)=CC(c2cccs2)=NS1(=O)=O | inconclusive: 12.6 µM [quencher, side channel, partial curve] | – |
| Cc1cc(C)c2[nH]c(=O)c(C(c3nnnn3CC3CCCO3)N3CCC(C)CC3)cc2c1 (configuration not stated) | inconclusive: 25.1 µM [quencher, side channel, single point] | – |
| CC(=O)Nc1ccc(NC(=O)CN(c2cccc([N+](=O)[O-])c2)S(C)(=O)=O)cc1 | inconclusive: 25.1 µM [quencher, side channel, partial curve] | – |
| Cc1cc([N+](=O)[O-])ccc1NCc1ccc2c(c1)OCCO2 | inconclusive: 17.8 µM [quencher, side channel, partial curve] | – |
| COc1ccc(-c2nc3c(c(=O)[nH]c(=O)n3Cc3ccccc3)n2C)cc1 | – | inactive: -10.3% |
| C/C(=N/Nc1nc(C)cc(-c2ccccc2)n1)c1ccco1 | – | inactive: 10.9% |
| CCOC(=O)N1CCN(C(=O)c2ccccc2NC(C)=O)CC1 | inconclusive: 14.1 µM [quencher, side channel, partial curve] | – |
| COC(=O)CN(c1ccc(C)c(Cl)c1)S(C)(=O)=O | – | inactive: -3.31% |
| COc1cc(OC)cc(C(=O)NNC(=S)NCc2ccco2)c1 | – | inactive: -0.798% |
| O=C(C1CCCCC1)N1CCN(S(=O)(=O)c2cccc([N+](=O)[O-])c2)CC1 | inconclusive: 28.2 µM [quencher, single point] | – |
| Cc1[nH][nH]c(=O)c1N=Nc1ccccc1C#N | inconclusive: 14.1 µM [quencher, side channel, partial curve] | – |
| O=[N+]([O-])c1cc2c(cc1/C=N/NS(=O)(=O)c1ccc(Br)cc1)OCO2 | inconclusive: 14.1 µM [quencher, side channel, partial curve] | – |
| O=C1C(Cl)=C(NCCN2CCCCC2)C(=O)c2ccccc21 | inconclusive: 8.91 µM [quencher, side channel, partial curve] | – |

| Compound | Potency | activity change, negative = inhibition |
| --- | --- | --- |
| C/C(=N\NC(=S)NC1CCCCC1)c1ccc(C#N)cc1 | inconclusive: 0.1 µM [fluorescent, side channel, full curve, poor fit] | – |
| S=c1nc2ccccc2c2nc(-c3ccccc3)[nH]n12 | – | inactive: -1.64% |
| OCCOCCNc1ncnc2sc(-c3ccccc3)cc12 | inconclusive: 12.6 µM [quencher, side channel, partial curve] | – |
| CC(C)CC(=O)NC(=S)N1CCN(c2ccc([N+](=O)[O-])cc2Cl)CC1 | inconclusive: 3.55 µM [quencher, side channel, full curve] | – |
| CCOC(=O)C1CCN(C(=O)Cn2cc(C(=O)C3CC3)c3ccccc32)CC1 | – | inactive: -6.33% |
| CCOc1ccc2c(c1)c(N=O)c(O)n2C | inconclusive: 8.91 µM [quencher, side channel, full curve] | – |
| O=C(COc1ccccc1)N(Cc1ccco1)c1ccc(O)cc1 | inconclusive: 1.12 µM [quencher, side channel, full curve] | – |
| CCCCC(=O)Nc1nc(-c2ccc(S(=O)(=O)N3CCOCC3)cc2)cs1 | – | inactive: 0.594% |
| Cc1nnc(N/N=C\c2ccc(-c3cccc(C(=O)O)c3)o2)n1N | inconclusive: 22.4 µM [quencher, side channel, partial curve] | – |
| COC(=O)c1sc(-c2ccc(C(C)(C)C)cc2)cc1NC(=O)CCC(=O)O | inconclusive: 22.4 µM [quencher, side channel, single point] | – |
| COc1cc([N+](=O)[O-])ccc1NC(=O)NCc1ccccn1 | inconclusive: 10 µM [quencher, side channel, partial curve] | – |
| CCN(CC)S(=O)(=O)c1ccc(/C=C/C(=O)Nc2ccc(N3CCOCC3)cc2)cc1 | inconclusive: 15.8 µM [quencher, side channel, partial curve] | – |
| CCn1c(/C=N/c2nc3ccccc3n2C)nc2ccccc21 | – | inactive: 5.52% |
| COc1nc2c(s1)C(=O)NCCC2 | – | inactive: -8.45% |
| CCOC(=O)c1nn(-c2ccc(F)cc2)c(=O)c(C#N)c1C | inconclusive: 8.91 µM [quencher, side channel, partial curve] | – |
| O=C(CCN1C(=O)c2cccc3cccc(c23)C1=O)N1CCOCC1 | inconclusive: 11.2 µM [quencher, side channel, partial curve] | – |
| Cc1cc(C)c(NC(=O)CSc2nc3ccc(N4C(=O)c5ccccc5C4=O)cc3s2)c(C)c1 | – | inactive: -11.9% |
| Cc1cc(C)c[n+](-c2nc3ccccc3nc2[N-]S(=O)(=O)c2ccc(Cl)cc2)c1 | inconclusive: 12.6 µM [quencher, side channel, partial curve] | – |
| c1cncc(-c2nc3cc4ccccc4cc3[nH]2)c1 | inconclusive: 25.1 µM [quencher, side channel, partial curve] | – |
| Cc1cc(-c2n[nH]c(=S)n2/N=C/c2ccccc2[N+](=O)[O-])n[nH]1 | inconclusive: 1.78 µM [quencher, side channel, single point] | – |
| CCN(CC)c1ccc2cc(C(=O)NNC(=O)c3ccc(S(=O)(=O)N4CCCCC4)cc3)c(=O)oc2c1 | – | inactive: 3.54% |

| Compound | Potency | activity change, negative = inhibition |
| --- | --- | --- |
| CCOc1ccc(N=Nc2ccc(O)c3ncccc23)cc1 | – | inactive: -0.659% |
| Cc1cc(-c2ccccc2)oc(=O)c1NC(=O)c1ccccc1 | inconclusive: 31.6 µM [quencher, side channel, partial curve] | – |
| CCOC(=O)c1sc(N)c(C(=O)Nc2ccccc2OC)c1C | inconclusive: 39.8 µM [fluorescent, single point] | – |
| Cn1c(Cc2ccccc2)nnc1SCC(=O)c1ccc(Br)s1 | inconclusive: 39.8 µM [quencher, side channel, single point] | – |
| CC(C)c1ccc(NC(=O)c2cc([N+](=O)[O-])ccc2N2CCOCC2)cc1 | inconclusive: 15.8 µM [quencher, side channel, partial curve] | – |
| Nc1nc(NCCCN2CCOCC2)nc(Nc2ccccc2)c1[N+](=O)[O-] | inconclusive: 39.8 µM [quencher, single point] | – |
| COc1ccc(C(C)=O)cc1CN1CCCCC1 | inconclusive: 5.01 µM [inhibitor, full curve, poor fit] | – |
| Cc1ccc(Nc2n[nH]c(C)c2[N+](=O)[O-])cc1 | inconclusive: 20 µM [quencher, side channel, partial curve] | – |
| COc1ccccc1-c1coc2c(CN3CCCCC3C)c(O)ccc2c1=O (configuration not stated) | – | inactive: 6.82% |
| CC(=O)c1ccc(COC(=O)c2cc3ccccc3oc2=O)cc1 | inconclusive: 14.1 µM [quencher, side channel, partial curve] | – |
| COc1ccc(S(=O)(=O)N2CCc3ccccc32)cc1[N+](=O)[O-] | inconclusive: 17.8 µM [quencher, side channel, partial curve] | – |
| CCN(Cc1ccccc1)S(=O)(=O)c1ccc(C(=O)Nc2nnc(C)o2)cc1 | – | inactive: -3.55% |
| NC(=O)NCc1ccc(Cl)cc1 | – | inactive: -5.51% |
| NCC(=O)c1cccc2ccc[n+]([O-])c12 | inconclusive: 14.1 µM [quencher, partial curve] | – |
| COc1ccccc1CNC(=O)C1CCN(S(=O)(=O)c2cccc([N+](=O)[O-])c2)CC1 | inconclusive: 7.08 µM [quencher, side channel, partial curve] | – |
| CCOc1cc(/C=C(/C#N)c2nc3ccccc3[nH]2)ccc1OCc1ccc(C(=O)O)o1 | inconclusive: 11.2 µM [quencher, side channel, partial curve] | – |
| CC1(C)CC(=O)C(CC2C(=O)CC(C)(C)CC2=O)C(=O)C1 | – | inactive: -1.97% |
| O=C(NCc1ccco1)c1ccc(NS(=O)(=O)c2cccc([N+](=O)[O-])c2)cc1 | inconclusive: 28.2 µM [quencher, side channel, single point] | – |
| O=C(CCNC(=O)C1CCN(S(=O)(=O)c2ccccc2)CC1)NCc1ccc(Cl)cc1Cl | – | inactive: -1.19% |
| CC(=O)c1cccc(NC(=O)C2=CC(c3ccco3)=NS(=O)(=O)N2C)c1 | inconclusive: 10 µM [quencher, side channel, partial curve] | – |
